Results: PubChem BioAssay AID624296 (National Center for Advancing Translational Sciences (NCATS), 2012)
Where “and” joins values, the source holds several entries; their conditions need not be identical. Equal entries are not always repeated. About 9,900 (2.8%) of roughly 350,000 compounds were called active. This list was built around the results that the source calls inconclusive (neither active nor inactive); the mix of calls is not that of the screen. Calls come from the whole dose curve; as a rule, active = well fitted activation curve with a large enough effect; inconclusive = small, poorly fitted or top-dose-only effect; inactive = no such curve, though single readings can be large or run the other way. Where the call is inconclusive, the potency comes from a doubtful curve fit.

Assay: A quantitative high throughput screen for small molecules that induce DNA re-replication in MCF 10a normal breast cells. For activity, positive = re-replication: % of control where 0% means no effect. Note: nearly all actives have a fitted effect of over 50% in size.
Conditions: MCF 10A DNA re-replication, Hoechst nuclear intensity, 48 h; activity, positive = re-replication: at 46.1 µM (top of the series)
Potency is the fitted concentration of half-maximal effect; tags give direction and shape of the fitted curve.

SMILES	Potency	activity, positive = re-replication
CCOC(=O)c1c(-c2ccccc2)oc2cc(Br)c(O)c(C=O)c12	active: 2.91 µM	–
Cc1c(C(=O)N(C)C2CCCCC2)sc2ncnc(N3CCN(c4ccccc4F)CC3)c12	inconclusive: 29.1 µM [activator, single point]	–
O=C(N/N=C\c1ccc(O)c([N+](=O)[O-])c1)C1COc2ccccc2O1 (configuration not stated)	inconclusive: 29.1 µM [activator, single point]	–
CCOC(=O)N1CCN(S(=O)(=O)c2ccc(F)c(C(=O)Nc3cc(C)cc(C)c3)c2)CC1	–	inactive: 14.5%
COc1ccc(CN2CCN(C(=O)c3cc(C4CC4)nn3-c3ccccc3)CC2)cc1F	inconclusive: 1.3 µM [activator, partial curve]	–
Fc1ccc2[nH]c3c(c2c1)CN(C(=S)NCc1ccccc1)CC3	inconclusive: 23.1 µM [activator, single point]	–
COC(=O)c1c(N(S(C)(=O)=O)S(C)(=O)=O)sc2c1CCN(c1ncc(C(F)(F)F)cc1Cl)C2	inconclusive: 16.4 µM [activator, single point]	–
CCOC(=O)CNc1nc(C(C)(C)C)nc2c1nnn2Cc1ccccc1Cl	inconclusive: 18.4 µM [activator, single point]	–
Cc1c(/C=N/N=C2\CCC3C4CCc5cc(O)ccc5C4CCC23C)cnn1C (configuration not stated)	inconclusive: 20.6 µM [activator, single point]	–
Cc1cccc2cc(CN(Cc3ccccc3)C(=O)c3cccc(F)c3)c(Cl)nc12	inconclusive: 8.2 µM [activator, single point]	–
CCCCCCSc1ccc(-c2nc3ccc(C)cn3c2NCc2ccccc2)cc1	inconclusive: 29.1 µM [activator, single point]	–
CCOC(=O)Cc1cc(=O)n2[nH]c(C)cc2n1	inconclusive: 6.51 µM [activator, single point]	–
COc1ccccc1C1CCN(C(=O)c2ccc(C(C)(C)C)cc2)CC1	inconclusive: 29.1 µM [activator, single point]	–
COc1ccc(-c2sc3ccc(N4CCOCC4)cc3c2C#CCCO)cc1	inconclusive: 25.9 µM [activator, partial curve, poor fit]	–
COc1cc2c(c(OC)c1OC)-c1ccc(SC)c(=O)cc1C(NC(=O)C(F)(F)F)CC2 (configuration not stated)	–	inconclusive: 95% [activator]
Cc1ccc(-c2noc(COc3ccccc3C)n2)cc1	inconclusive: 16.4 µM [activator, partial curve, poor fit]	–
Oc1c(Cl)cc(Cl)cc1Sc1cc(Cl)cc(Cl)c1O	inconclusive: 1.88 µM [activator, partial curve] and inconclusive: 820 nM [activator, full curve]	–
